Laboratory results reported in ChEMBL document CHEMBL5308541, “MAIP: An Open-Source Tool to Enrich High-Throughput Screening Output and Identify Novel, Druglike Molecules with Antimalarial Activity” (ACS Med Chem Lett, 2023).
Out of some 150,000 compounds screened, about 540 (0.36%) showed an effect of 50% or more. Some of the results follow.

These molecules were tested on Plasmodium falciparum (assay: Primary screen in NF54 nanoGlo assay, in single point, at 2uM, 72h; a lower Z score goes with more inhibition). Conditions: timepoint 72 hour.
Type: functional, Erythrocyte

Row | Structure (SMILES) | % Inhibition [%] | Z score
1 | COc1ccc2[nH]c(CNCc3ccc(CN4CCCCC4)s3)cc2c1 | 7 | -1.44
2 | C=C(C)CN(Cc1c[nH]nc1-c1ccccc1F)Cc1c[nH]nc1-c1ccccc1F | -12 | 2.14
3 | c1ccc(-c2ncc(CN(Cc3cccnc3)CC3CCN(C4CCCC4)CC3)s2)cc1 | -9 | 1.54
4 | Nc1nc(NC[C@@H](CO)Cc2ccccn2)nc2ccccc12 | 2 | -0.46
5 | Cc1ccc(C(=O)N2CCS(=O)(=O)C[C@H]2C(=O)O)cc1C | -11 | 2.12
6 | CNc1nc(N[C@H]2CCCN(CC3CCCCC3)C2)ncc1F | 0 | -0.1
7 | O=C(C1CCNCC1)N1CC(O)C(Cc2ccnc3ccccc23)C1 (centres undefined) | -6 | 1.1
8 | CC(C)(CNC1CCN(c2ccc(C(=O)NCc3ccccc3F)cc2)CC1)N1CCOCC1 | -9 | 1.62
9 | CN1CC[C@@H](CNC2CCCN(Cc3ccccc3)C2)[C@@H]1c1cccnc1 (some centres undefined) | 3 | -0.54
10 | O=C([C@@H]1COCCN1CC(F)F)N1CCC(c2c[nH]c3cc(F)ccc23)CC1 | 0 | -0.02
11 | C[C@@H](c1ccc(-c2ncc(F)c(N3CCOCC3)n2)cc1)N1CCCCC1 | 1 | -0.18
12 | Nc1ccc2c(N3CCN(CCOc4ccccc4Cl)CC3)ncnc2n1 | 4 | -0.7
13 | CCCN1CCN([C@@H](C)CCCN(C(=O)Cc2c[nH]c3cc(Cl)ccc23)C2CC2)CC1 | 3 | -0.6
14 | c1nc2c(c(Nc3ccc4scnc4c3)n1)CCC2 | -5 | 1.02
15 | CCN1C[C@@H](CNCc2cnc(Nc3ccc4nccnc4c3)s2)CC1=O | -2 | 0.3
16 | O=C(Cc1c[nH]c2ncccc12)N1CCCN(c2ccccc2Cl)CC1 | 7 | -1.44
17 | OCCNc1cc(NCC2CCN(C3CCCC3)CC2)ncn1 | -6 | 0.96
18 | Cc1cc(-c2nc3cc(C(C)(C)C)ccc3[nH]2)c(C)n1-n1cnnc1 | 13 | -2.25
19 | CC(C)N1C2CCC1CN(c1cncc(N3CCC4CCC(C3)N4C(C)C)n1)CC2 | -11 | 2.05
20 | C=C(C)CS(=O)(=O)N1CCN(c2cnn(C)c2)C(=O)C1 | -3 | 0.62
21 | Cc1ccccc1-c1cnc(-c2ccncc2)nc1[C@H]1CCCN(Cc2ccc(F)c(F)c2)C1 | 16 | -2.86

Row | Structure (SMILES) | % Inhibition [%] | Z score
22 | NCCc1nc(N2CCC[C@H]2c2nc(-c3ccncc3)no2)c2ccccc2n1 | -12 | 1.87
23 | O[C@H]1CCCN(C2CCN(Cc3ccc4c(c3)OC(F)(F)O4)CC2)C1 | -5 | 0.87
24 | COc1ccc(-c2ccc(NC3CCCC3)nn2)cc1S(=O)(=O)N1CCOCC1 | 2 | -0.33
25 | O=S(=O)(c1c[nH]c2ncccc12)N1CCCC[C@H]1c1nc(-c2cccc(F)c2)c[nH]1 | -2 | 0.35
26 | CCc1noc(CNC2CCN(c3cccc(-c4cccc(F)c4)c3)CC2)n1 | -11 | 1.83
27 | COc1cc(-c2onc(N3CCC(N4CCN(CCO)CC4)CC3)c2C(=O)O)ccc1F | -2 | 0.32
28 | Cc1c(-c2cc(-c3nc4ccc(Cl)cc4[nH]3)nc(N)c2C#N)cnn1C | 5 | -1.11
29 | CC(C)N1CCC(CN2CCN3CCN(C)C[C@H]3C2)CC1 | 2 | -0.5
30 | O=C(Nc1cccc(CN2CCCC2)c1)[C@H]1CCCN(C2CCOCC2)C1 | 0 | 0.1
31 | Cc1cc(C)c2nc(CN3CCCC[C@@H]3CCN3CCN(C)CC3)cc(O)c2c1 | -2 | 0.37
32 | C[C@@H](CO)n1ncc2cc(N(C)C)ccc2c1=O | -9 | 1.78
33 | O=C(c1cnn2c1OCCC2)N1CCC(N2CCC(Oc3ccc(C(F)(F)F)cn3)CC2)CC1 | -4 | 0.56
34 | Oc1ccc(-c2c(-c3ccccc3)ncn2CCCc2nnn[nH]2)cc1Cl | -4 | 0.7
35 | CC(C)(C)OC(=O)N1CCCC1C1COCCC1NC1CCN(C(=O)c2ccco2)CC1 (centres undefined) | -11 | 1.86
36 | O=C(NC1CNCC1O)c1cccc(-c2cccc(OC(F)(F)F)c2)c1 (centres undefined) | -5 | 0.88
37 | COc1ccc(NC(=O)CN(C)C(=O)c2c[nH]c3ccccc23)cc1Cl | 2 | -0.39
38 | CCc1ccc(Oc2cc(N3CCC(C(=O)N4CCN(C5CCCCC5)CC4)CC3)ncn2)cc1 | 4 | -0.57
39 | CNC(=O)COc1ccc(CN2CCN(C)c3ccc(Cl)cc32)cc1OC | -12 | 2.35
40 | CC(C)(NCCCNS(C)(=O)=O)c1cccc(C(F)(F)F)c1 | -9 | 1.97
41 | CC(C)c1oncc1NC(=O)Cc1c[nH]c2ncccc12 | 0 | 0.02
42 | O=C(NC[C@H]1CCCO1)c1cccc(CNc2ncnc3[nH]ccc23)c1 | -4 | 0.87

Row | Structure (SMILES) | % Inhibition [%] | Z score
43 | CN(Cc1cccc2[nH]ccc12)c1nc(=O)c2cn[nH]c2[nH]1 | -1 | 0.19
44 | Fc1cc2[nH]cc(CCNc3nc(C4CCOCC4)ns3)c2cc1Cl | -16 | 2.36
45 | O=C(N[C@@H]1COC2(CCNCC2)C1)c1cccc(-c2cccc(F)c2)c1 | -8 | 1.69
46 | c1ccc(C2CCN(c3nccc(NC4CCCCC4)n3)CC2)cc1 | -7 | 1.11
47 | Cc1nc(CN2CCC(CNc3ncnc4[nH]ncc34)CC2)oc1C | -12 | 2.32
48 | COc1cccc2[nH]cc(CC(=O)NC3CCC(Oc4cnccn4)CC3)c12 (centres undefined) | -3 | 0.47
49 | O=C(c1[nH]nc2c1COc1ccccc1-2)N1CCC2(CC1)C[C@@H](CCOc1ccncc1)CCO2 | -6 | 1.04
50 | C[C@@H](c1ccccc1Cl)N1CCN(c2ncnc3[nH]ccc23)CC1 | 4 | -0.74
51 | CCN(Cc1cnc(-c2ccccc2C)nc1)CC1CCN(C2CCN(C)CC2)CC1 | -7 | 1.18
52 | O=C(c1cccc2c(=O)c3ccccc3[nH]c12)N1CCCC2(CCNCC2)CC1 | -1 | 0.25
53 | Cc1cc(Br)oc1C(=O)N[C@H]1CCN(CC(F)(F)F)C1=O | -11 | 1.66
54 | CCCC[C@@H](CN)NS(=O)(=O)N1CCCCCC1 | -10 | 1.67
55 | C#CCOc1cc(F)ccc1NS(=O)(=O)c1ccc2c(c1)C(=O)NCC2 | -3 | 0.61
56 | Cc1cc(CC(C)NC(=O)N2CCCCCC2c2ccc(C)o2)n[nH]1 (centres undefined) | 8 | -1.68
57 | COc1ccccc1N1CCC(Nc2ncccc2-c2nc(C)no2)CC1 | -3 | 0.46
58 | O=C(C[C@H](O)c1cc(Cl)cc(Cl)c1)N1CCN(CCN2CCCOCC2)CC1 | -3 | 0.52
59 | CN1CCN(CCNc2ccccc2Cl)CC1 | -5 | 0.81
60 | COC[C@H](NC(=O)c1nc2ccccc2s1)c1ccc(C)o1 | -8 | 1.66
61 | CCN1CCC(N(C)C(=O)C2CC3CCCCC3N2C(=O)c2sc3ccccc3c2Cl)CC1 (centres undefined) | 7 | -1.3
62 | Fc1ccc(CNC2CCN(Cc3ccco3)CC2)cc1Cl | 7 | -1.5
63 | O=C(c1ccc2[nH]ccc2c1)N1CCC[C@H](Cc2noc(-c3cnccn3)n2)C1 | -10 | 2.07

Row | Structure (SMILES) | % Inhibition [%] | Z score
64 | CC[C@@H](CNc1nc(C)nc2sccc12)N(C)C | -8 | 1.73
65 | Cn1ccnc1[C@@H](O)C1CCN(C(=O)c2cccc(-c3cncnc3)c2)CC1 | -4 | 0.62
66 | CCc1ccc(-c2nc(Nc3ccccc3OC)sc2C)cc1 | -17 | 3.75
67 | CC(C)c1nc(N2CCN(C(=O)[C@@H]3CCCN3C)CC2)c2cc[nH]c2n1 | -4 | 0.9
68 | CCOc1cccc(N2CCN(C(=O)c3cc(-c4ccc(F)cc4)[nH]n3)CC2)n1 | 39 | -8.48
69 | CN1CCCCC1CN1CCN(CC(O)CN2CCOCC2)CC1 (centres undefined) | -3 | 0.59
70 | COCCn1ccc(Nc2ncnc3ccc(Br)cc23)n1 | -6 | 0.88
71 | OC1CCN(Cc2ccccc2CNc2ncnc3ccccc23)CC1 | 18 | -3.58
72 | COc1cc2nc(N3CC(O)C(Cc4cc(C)no4)C3)nc(N)c2cc1OC (centres undefined) | -5 | 0.89
73 | CN1C(=O)COc2ccc(C(=O)N3CCC[C@@]4(CCOC4)C3)cc21 | -9 | 1.51
74 | Cn1ncc2c(N)nc(N3CCC(CCCn4ccnc4)CC3)nc21 | -4 | 0.76
75 | CC1(C)CC(NCc2ccc(Cl)cc2-n2cncn2)CC(C)(C)N1 | 1 | -0.12
76 | c1cc(Nc2ccnc(C3CC3)n2)cc(N2CCCCCC2)c1 | -1 | 0.19
77 | c1csc(CN2CCC(NCc3cnc(NC[C@H]4CCCO4)nc3)CC2)c1 | -4 | 0.79
78 | COc1ccc(CCN2CCC(CN(C)C[C@H]3CCOC(C)(C)C3)CC2)cc1 | -4 | 0.72
79 | CN(C)c1ccc(NCc2c[nH]nc2-c2ccccc2)nc1 | -8 | 1.33
80 | Cc1ccncc1S(=O)(=O)N(c1ccccc1)C1CCN(C)CC1 | -9 | 1.39
81 | c1ccc(-c2ncn(Cc3ncn[nH]3)c2-c2ccc(-c3cncnc3)cc2)cc1 | -4 | 0.73
82 | CS(=O)(=O)c1ccc2ncnc(NCc3ccnc(OCC(F)F)c3)c2c1 | -6 | 1.04
